From PubChem BioAssay AID1347165 (National Center for Advancing Translational Sciences (NCATS), 2019)
The whole screen tested about 220,000 compounds, of which about 5,700 (2.6%) were called active. The shares of active, inactive and inconclusive entries below differ from those in the screen. Calls come from the whole dose curve; as a rule, active = well fitted inhibition curve with a large enough effect; inconclusive = small, poorly fitted or top-dose-only effect; inactive = no such curve, though single readings can be large or run the other way. A potency beside an inconclusive call is a rough fit, not a confirmed value.

biological target: Lysine-specific demethylase 5B (Homo sapiens) (UniProt Q9UGL1); experiment: Primary screen for KDM5B Histone Demethylases FDH-coupled qHTS; settings: FDH-coupled NADH fluorescence (FDH is formaldehyde dehydrogenase); series mostly up to 57.7 µM; note: nearly all actives have a fitted effect of over 70% in size
Procedure, shortened: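 qHTS format, multiple compound concentrations. Buffer 50 mM HEPES pH 7.5/0.01% Tween-20; 200 nM KDM5BΔAP final; 10 min compound preincubation; substrate-mix levels 12.5 µM peptide, 25 µM α-KG, 0.25 mM NAD⁺; 30 min RT; ΔRFU.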
Potency is the fitted concentration of half-maximal effect; tags give direction and shape of the fitted curve.

Chain of UniProt Q9UGL1 (Q9UGL1 whole entry, looked up): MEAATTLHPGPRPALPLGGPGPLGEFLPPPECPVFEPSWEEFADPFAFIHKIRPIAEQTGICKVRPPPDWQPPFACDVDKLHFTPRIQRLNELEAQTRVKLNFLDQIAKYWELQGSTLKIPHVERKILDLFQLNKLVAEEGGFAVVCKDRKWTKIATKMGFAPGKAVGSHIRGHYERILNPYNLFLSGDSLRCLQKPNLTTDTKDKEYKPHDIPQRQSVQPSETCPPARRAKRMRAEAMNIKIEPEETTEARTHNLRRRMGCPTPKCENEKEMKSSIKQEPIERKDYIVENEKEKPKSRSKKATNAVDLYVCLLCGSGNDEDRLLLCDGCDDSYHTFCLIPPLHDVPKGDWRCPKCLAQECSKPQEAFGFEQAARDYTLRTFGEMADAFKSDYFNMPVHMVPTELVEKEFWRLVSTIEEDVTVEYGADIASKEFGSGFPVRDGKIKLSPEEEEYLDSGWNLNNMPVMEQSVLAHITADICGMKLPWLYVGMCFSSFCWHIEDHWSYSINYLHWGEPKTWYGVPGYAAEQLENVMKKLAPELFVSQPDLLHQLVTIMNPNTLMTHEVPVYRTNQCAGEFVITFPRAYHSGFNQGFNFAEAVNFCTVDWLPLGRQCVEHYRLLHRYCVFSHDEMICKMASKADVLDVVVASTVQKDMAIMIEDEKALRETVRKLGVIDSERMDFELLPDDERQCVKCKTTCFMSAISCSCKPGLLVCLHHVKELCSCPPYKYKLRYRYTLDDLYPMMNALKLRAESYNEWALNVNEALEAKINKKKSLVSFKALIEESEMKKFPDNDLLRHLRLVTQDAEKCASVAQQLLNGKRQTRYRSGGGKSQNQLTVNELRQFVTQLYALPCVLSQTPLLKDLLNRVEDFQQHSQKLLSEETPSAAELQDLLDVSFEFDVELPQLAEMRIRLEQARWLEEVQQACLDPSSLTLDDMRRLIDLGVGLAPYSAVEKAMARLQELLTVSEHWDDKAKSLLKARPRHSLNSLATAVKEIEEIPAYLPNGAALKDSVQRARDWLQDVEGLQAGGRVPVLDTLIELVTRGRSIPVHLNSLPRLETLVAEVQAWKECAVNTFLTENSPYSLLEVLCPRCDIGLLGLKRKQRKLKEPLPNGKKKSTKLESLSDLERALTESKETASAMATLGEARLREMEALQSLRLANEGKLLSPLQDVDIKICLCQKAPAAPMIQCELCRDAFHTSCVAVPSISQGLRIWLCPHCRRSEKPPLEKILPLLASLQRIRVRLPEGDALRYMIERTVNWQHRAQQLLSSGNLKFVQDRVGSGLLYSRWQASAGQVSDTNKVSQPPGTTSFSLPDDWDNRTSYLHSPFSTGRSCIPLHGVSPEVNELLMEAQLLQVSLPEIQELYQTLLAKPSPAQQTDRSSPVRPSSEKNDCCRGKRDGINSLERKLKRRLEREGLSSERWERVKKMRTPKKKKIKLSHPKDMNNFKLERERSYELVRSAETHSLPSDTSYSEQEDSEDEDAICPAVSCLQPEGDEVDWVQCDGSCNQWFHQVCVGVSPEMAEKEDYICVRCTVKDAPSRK

Row | Structure (SMILES) | Potency
1 | COc1ccc2[nH]cc(CCNC(=O)C3Cn4cccc4C(=O)N3Cc3cccnc3)c2c1 (stereo not given) | inactive
2 | O=C(c1ccc(N2CCCC(O)C2)nc1)N1CCC(CCc2ccccc2)CC1 (stereo not given) | inconclusive: 22.4 µM [inhibitor, single point]
3 | Cc1ccc(Cl)cc1-n1ncc2c(=O)n(CC(=O)Nc3ccc(F)cc3Cl)cnc21 | inconclusive: 39.8 µM [inhibitor, single point]
4 | COc1ccc(-c2nc(C3CC3)nc3c2CCN([S+](=O)([O-])c2cccc(OC)c2)CC3)cc1 | inactive
5 | CCc1cc(C(=O)Nc2cnn(Cc3ccc(F)cc3)c2)no1 | inconclusive: 50.1 µM [inhibitor, single point]
6 | Cc1cccc(NC(=O)Cn2cc(S(=O)(=O)c3ccc(F)cc3)c(=O)c3cc4c(cc32)OCO4)c1 | inconclusive: 15.8 µM [inhibitor, partial curve, poor fit]
7 | CN1CCN(c2nc3ccccc3nc2NS(=O)(=O)c2ccc(Cl)cc2)CC1 | inactive
8 | O=C(Cn1c(-c2cccs2)cc2cc(Cl)ccc21)NCc1ccccc1 | inconclusive: 31.6 µM [inhibitor, partial curve, poor fit]
9 | COc1ccc(-c2ccnc(N[C@H]3CO[C@H]4[C@@H]3OC[C@@H]4NC(=O)NCc3ccccc3)n2)cc1 | active: 25.1 µM
10 | Cc1ccc(CC(=O)NC(C)c2ccccn2)cc1C (stereo not given) | inactive
11 | CCOc1ccccc1CN1C[C@@H](CO)[C@H](c2ccccn2)C1 | inactive
12 | c1ccc(CN2CCC[C@H]2c2nc(-c3ccc(OC4CCCCC4)nc3)no2)nc1 | inconclusive: 28.2 µM [inhibitor, single point]
13 | COc1ccc(-n2nc3ccc(NC(=O)COc4ccc(C)c(C)c4)cc3n2)cc1 | inconclusive: 2.82 µM [inhibitor, partial curve, poor fit]
14 | O=C(O)CCC(=O)NCCCN1CCOCC1 | inactive
15 | COc1ccccc1OCC(=O)N(Cc1ccc(N(C)C)cc1)CC1CCCO1 (stereo not given) | inconclusive: 1 µM [inhibitor, full curve, poor fit]
16 | CN1c2cc(C(=O)Nc3ccc(OC(F)(F)F)cc3)ccc2C(=O)N2CCCCCC21 (stereo not given) | inconclusive: 35.5 µM [inhibitor, partial curve, poor fit]
17 | COc1ccc(S(=O)(=O)N2CCc3c(C(=O)NCCc4cccs4)cccc32)cc1 | inactive
18 | COc1cc(C(C(=O)O)N(C)Cc2c(C)nn(C)c2C)ccc1N (stereo not given) | inconclusive: 3.16 µM [inhibitor, full curve, poor fit]
19 | COc1ccc(Nc2ccc3cc(S(=O)(=O)N4CCCC4)ccc3n2)cc1Cl | inconclusive: 25.1 µM [inhibitor, partial curve, poor fit]
20 | COc1ccc(Cl)cc1NC(=O)c1cnc(Nc2ccccc2OC)c2ccccc12 | inconclusive: 25.1 µM [inhibitor, partial curve, poor fit]

Row | Structure (SMILES) | Potency
21 | CC(=O)NCC(=O)N1CC[C@@H]2COCCN(Cc3cccnc3)[C@@H]2C1 | inconclusive: 39.8 µM [inhibitor, partial curve, poor fit]
22 | O=C(OCc1coc(-c2ccccc2)n1)C1=NN(C2CCS(=O)(=O)C2)C(=O)CC1 (stereo not given) | inactive
23 | CCCCOc1ccc2c(=O)c(Oc3ccccc3)c(C)oc2c1 | inactive
24 | CNc1ncccc1C(=O)N1CCc2nc(-c3cn[nH]c3)[nH]c2C1 | active: 28.2 µM
25 | COc1cc(/C=C/C(=O)c2ccc(CC(C)C)cc2)cc(OC)c1O | inconclusive: 39.8 µM [inhibitor, single point]
26 | Cc1ccc(C)c(NC(=O)N2CC=C(c3c[nH]c4ccccc34)CC2)c1 | inconclusive: 10 µM [inhibitor, partial curve, poor fit]
27 | O=C1[C@@H]2C[C@@H](CN2C2CCOCC2)Oc2ccccc2N1Cc1ccccc1 | inconclusive: 31.6 µM [inhibitor, partial curve, poor fit]
28 | CNC(=O)COC(=O)c1cc(-c2ccc(F)cc2)nc2ccccc12 | inconclusive: 22.4 µM [inhibitor, partial curve, poor fit]
29 | Cc1ccc(NC(=O)C2CCCN(S(=O)(=O)c3cccc4cccnc34)C2)cc1Cl (stereo not given) | inconclusive: 25.1 µM [inhibitor, single point]
30 | Cc1ccc(C(=O)Nc2cccc(C(=O)OCc3cc(=O)n4c5c(sc4n3)CCCC5)c2)cc1 | inconclusive: 35.5 µM [inhibitor, partial curve, poor fit]
31 | Cc1ccc(-n2nc(C)c([C@H]3C=C[C@@H](OC(=O)Nc4cccc(F)c4)C3)c2C)cc1Cl | inconclusive: 39.8 µM [inhibitor, partial curve, poor fit]
32 | COc1cc(OC)c(NC(=O)c2ccc3nc(C(C)C)oc3c2)cc1Cl | inconclusive: 3.55 µM [inhibitor, partial curve, poor fit]
33 | Cc1ccc2[nH]cc(C(c3ccccc3)c3cccs3)c2c1 (stereo not given) | inconclusive: 15.8 µM [inhibitor, partial curve, poor fit]
34 | O=C(Nc1ccc2c(c1)OCCO2)c1ncoc1-c1cccc(Cl)c1 | inconclusive: 39.8 µM [inhibitor, single point]
35 | CCOc1ccc(NC(=O)C(C)Oc2ccccc2F)c2cccnc12 (stereo not given) | inconclusive: 28.2 µM [inhibitor, single point]
36 | Cc1ccc(CNC(=S)NCc2ccc(F)cc2)cc1 | inactive
37 | Cc1noc(-c2cn(C3CCN(C(=O)c4cccc(C(F)(F)F)c4)CC3)nn2)n1 | inactive
38 | CCOC(=O)c1ccc(NC(=O)c2ccc3c(c2)N(C)C2CCCCN2C3=O)cc1 (stereo not given) | inconclusive: 31.6 µM [inhibitor, partial curve, poor fit]
39 | CN1CCN(C(=O)[C@H]2C[C@H](C(=O)O)CN(C(=O)c3ncccc3O)C2)CC1 | inconclusive: 12.6 µM [inhibitor, partial curve, poor fit]
40 | O=C(c1cc(F)ccc1F)N1CCCCC1c1nc(-c2cnccn2)n[nH]1 (stereo not given) | inconclusive: 12.6 µM [inhibitor, partial curve, poor fit]
